Measured values from the supplement of paper PMC3334620.
Whole data set: some 33,000 sequences, median “E-score (-0.5 to 0.5)” near -0.016, cut for the highest 2% near 0.31. The list shows a part of the results.

The sequences below were run against Cst6 (UniProt P40535) (assay: PBM E-score (8-mer binding enrichment) (E-score (-0.5 to 0.5)); higher = stronger / more preferred TF binding; most listed sequences are background and not binding sites). Conditions: protein concentration: 200 nM; construct: GST-DNA-binding domain.
Method in brief: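 Universal all-10-mer Agilent arrays, fresh or stripped once, were converted to double-stranded form by primer extension. GST-tagged yeast transcription factors from PURExpress in vitro transcription/translation, full-length or DNA-binding domain only, were applied at about 100-200 nM and detected with fluorescent anti-GST. After masliner normalisation, the Universal PBM Analysis Suite scored each ungapped eight-base word together with its reverse complement by E-score.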

First: AAAAAGAC
Second: TCAGACGA
The “PBM E-score” value of the first is higher: 0.124 for the first, 0.0699 for the second.

Compared with CTAAGTAC, AAGAGGAC is lower in “PBM E-score” value: 0.0904 for the first, -0.249 for the second.

Compared with CACATCAC, GCATAAAC is lower in “PBM E-score” value: 0.217 for the first, 0.205 for the second.

First: CACTAAGA
Second: CGGGCCAA
The “PBM E-score” value of the first is higher: 0.024 for the first, -0.26 for the second.

Compared with ATCCTGTC, ATAGCTCA is lower in “PBM E-score” value: 0.119 for the first, 0.0523 for the second.

Compared with AACATAGT, TGAAGCAA is lower in “PBM E-score” value: 0.148 for the first, -0.112 for the second.

Going from CCTGACTA to ATAATCTC, the “PBM E-score” value rises from 0.0718 to 0.166.

Compared with GTTTGTCA, ATGCCTAC is lower in “PBM E-score” value: 0.184 for the first, -0.21 for the second.

Compared with AGAATTAG, ATCGTTAG is higher in “PBM E-score” value: 0.0556 for the first, 0.0972 for the second.

Going from AATCGAGA to AACCTGCT, the “PBM E-score” value falls from -0.00458 to -0.108.

Compared with CCGCGCTC, CATTTACG is higher in “PBM E-score” value: -0.0887 for the first, 0.178 for the second.

First: GGTCTTTA
Second: ATGCGAAC
The “PBM E-score” value of the first is lower: -0.0126 for the first, 0.0217 for the second.

Compared with ATGCGTTA, CGTAGTAG is higher in “PBM E-score” value: 0.0442 for the first, 0.0995 for the second.

Compared with ATACGGAG, ATTTCGAG is higher in “PBM E-score” value: 0.00023 for the first, 0.0911 for the second.

First: AATAGCAA
Second: GAATCGCA
The “PBM E-score” value of the first is higher: 0.156 for the first, -0.237 for the second.

Going from CGTAGCGC to GCTTCTTA, the “PBM E-score” value rises from -0.144 to 0.124.

Going from ACAAGACA to ACCGATAC, the “PBM E-score” value falls from 0.164 to -0.0522.

Compared with AGGGGCAG, AAAAGCAA is higher in “PBM E-score” value: -0.284 for the first, 0.168 for the second.

First: ATCCCGAC
Second: ATTGGTAG
The “PBM E-score” value of the first is lower: -0.078 for the first, 0.0186 for the second.

First: GCCGTAGA
Second: GGTAAGTA
The “PBM E-score” value of the first is higher: 0.187 for the first, 0.077 for the second.

Compared with AAGTCACG, ATAATCCC is lower in “PBM E-score” value: 0.0378 for the first, -0.053 for the second.

First: CAAAATCC
Second: ATAACCAA
The “PBM E-score” value of the first is lower: 0.192 for the first, 0.213 for the second.

First: AGCCACAA
Second: CAGTTTAC
The “PBM E-score” value of the first is lower: -0.0333 for the first, 0.0349 for the second.

Going from AGTTTAGC to AATGCACG, the “PBM E-score” value rises from -0.0767 to 0.0682.

First: GACCTCGC
Second: GAAGACAC
The “PBM E-score” value of the first is lower: -0.0281 for the first, 0.0869 for the second.

Compared with CCGATGGA, CGTTTAAA is higher in “PBM E-score” value: -0.168 for the first, 0.187 for the second.

First: AGAGTCGG
Second: TCTACGCA
The “PBM E-score” value of the first is lower: -0.0891 for the first, 0.193 for the second.

Going from GAACTCGA to CACCAATG, the “PBM E-score” value falls from -0.00239 to -0.013.

Going from AGAAAAGA to CGAAGTTC, the “PBM E-score” value falls from 0.112 to 0.00463.

First: AACTTGCC
Second: AACCCGTG
The “PBM E-score” value of the first is higher: -0.017 for the first, -0.209 for the second.

First: TCTAAGCA
Second: AATAGTGG
The “PBM E-score” value of the first is higher: 0.112 for the first, -0.149 for the second.

Compared with AAAAATCT, GCAACCGA is lower in “PBM E-score” value: 0.175 for the first, -0.185 for the second.

Going from GGATGTGA to CGGTCGGC, the “PBM E-score” value falls from -0.0834 to -0.374.

Compared with AGAGTTAA, GAACCCGC is lower in “PBM E-score” value: 0.0356 for the first, -0.304 for the second.

First: AACGAGGA
Second: GGAATTCC
The “PBM E-score” value of the first is higher: -0.0303 for the first, -0.17 for the second.

Compared with AACTATAG, GGTGCACC is higher in “PBM E-score” value: -0.171 for the first, -0.13 for the second.

Compared with CAGAATCA, CTCGACCA is lower in “PBM E-score” value: 0.137 for the first, -0.258 for the second.

Going from CCATGCGC to AATTGGAC, the “PBM E-score” value rises from -0.195 to -0.0118.

Compared with ACGCAGTC, GGCTACGA is higher in “PBM E-score” value: -0.165 for the first, 0.0593 for the second.

Compared with AGGACCCA, CATCATCC is higher in “PBM E-score” value: -0.348 for the first, 0.345 for the second.

Compared with AATGTACA, CCTAGTAA is lower in “PBM E-score” value: 0.152 for the first, -0.194 for the second.

Compared with ATTGCTCG, CCGTCTAC is higher in “PBM E-score” value: -0.157 for the first, 0.0417 for the second.

First: CTTTCAAA
Second: CACGCCTC
The “PBM E-score” value of the first is higher: 0.168 for the first, -0.0843 for the second.

First: CCGAGGCA
Second: AAACGGAT
The “PBM E-score” value of the first is lower: -0.00896 for the first, 0.222 for the second.

Going from GCCGAATA to GCACTTAA, the “PBM E-score” value rises from 0.064 to 0.143.

Going from ACCTGACT to GTCATAGA, the “PBM E-score” value rises from -0.0496 to 0.411.

Going from CCGTGAAG to ATTGGTGG, the “PBM E-score” value rises from -0.216 to 0.0879.

Going from ACGTACAT to CTTAATCC, the “PBM E-score” value falls from 0.289 to -0.201.

Going from CATCGGTA to GCAGTCCC, the “PBM E-score” value falls from -0.0604 to -0.297.

First: GGGGTGAA
Second: GTTCTTAA
The “PBM E-score” value of the first is lower: -0.178 for the first, 0.0411 for the second.

Going from CTTTCTGC to CCGGTCCA, the “PBM E-score” value falls from 0.0175 to -0.363.

Compared with AGCTTAGG, ACCTAGAC is lower in “PBM E-score” value: -0.105 for the first, -0.163 for the second.

First: CAGGTCCG
Second: AGTAGGTC
The “PBM E-score” value of the first is lower: -0.291 for the first, -0.102 for the second.

Going from AGGTCCCA to CCAGGTGC, the “PBM E-score” value falls from -0.0716 to -0.0722.

Compared with CGGGGGAA, AGTAGGAA is higher in “PBM E-score” value: -0.255 for the first, -0.0518 for the second.

Going from CACGTTTA to CTCACCTA, the “PBM E-score” value falls from 0.272 to 0.00557.

Going from GGTGTGCA to TACTCCTA, the “PBM E-score” value rises from -0.202 to -0.0124.

Going from GTGAACCA to CTAGTTCC, the “PBM E-score” value rises from -0.0301 to 0.0382.

Going from CTCCAAAC to AATTGTAG, the “PBM E-score” value rises from -0.0568 to 0.131.

First: CCGCGAAG
Second: AAAAGCGG
The “PBM E-score” value of the first is lower: -0.215 for the first, -0.0308 for the second.

Going from CGACGCCA to AGTGTCCA, the “PBM E-score” value rises from 0.00886 to 0.0974.

Going from ACCTCGAT to AAGACAGG, the “PBM E-score” value rises from -0.149 to -0.0516.

First: GAGAGTCC
Second: CTTTATGA
The “PBM E-score” value of the first is lower: -0.321 for the first, 0.13 for the second.

Compared with AAATAAAG, TCACTAAA is higher in “PBM E-score” value: 0.104 for the first, 0.227 for the second.

Going from CGACTAAA to AGCACAGG, the “PBM E-score” value falls from -0.0148 to -0.104.

Compared with ATCACGAA, AGAACTGC is lower in “PBM E-score” value: 0.126 for the first, -0.175 for the second.

Going from GACAGTTA to AGATCACG, the “PBM E-score” value rises from 0.00849 to 0.107.

First: TCCGCGAA
Second: CCATTGGG
The “PBM E-score” value of the first is higher: 0.0184 for the first, -0.244 for the second.

First: GGCAGTAC
Second: ATTTCAAG
The “PBM E-score” value of the first is lower: -0.141 for the first, 0.0685 for the second.

Going from AAGAGAGA to GCCGGTAC, the “PBM E-score” value falls from -0.0292 to -0.162.

First: GTATACAA
Second: GCGCATCC
The “PBM E-score” value of the first is higher: 0.125 for the first, 0.0721 for the second.

First: ACATGTCC
Second: AAAAGCTT
The “PBM E-score” value of the first is higher: -0.041 for the first, -0.0885 for the second.

First: CAGTACAA
Second: GTACGGGA
The “PBM E-score” value of the first is higher: -0.108 for the first, -0.191 for the second.

First: AATCTCAC
Second: CAGTGATA
The “PBM E-score” value of the first is lower: -0.00101 for the first, 0.0488 for the second.

Going from AATTTAAG to AATTCCAG, the “PBM E-score” value rises from 0.102 to 0.176.

Compared with CATCCTCA, ATTGGCTC is lower in “PBM E-score” value: 0.102 for the first, -0.129 for the second.

Going from CGAAGGTC to ATCGGGGG, the “PBM E-score” value falls from -0.225 to -0.387.

First: ACGCCCTC
Second: GAATACAA
The “PBM E-score” value of the first is lower: 0.0162 for the first, 0.116 for the second.

Going from AGCGAAAT to GCGAAAGA, the “PBM E-score” value falls from -0.0757 to -0.0882.

Compared with GACAAAAA, CGTTGCGC is lower in “PBM E-score” value: 0.26 for the first, 0.0417 for the second.

Going from ACTGTTCT to CATTAACC, the “PBM E-score” value rises from -0.131 to 0.189.

First: ATCAGTCG
Second: ATGAATTA
The “PBM E-score” value of the first is lower: -0.00867 for the first, 0.19 for the second.

Compared with CCTACGTC, AAAACCAA is lower in “PBM E-score” value: 0.305 for the first, 0.0847 for the second.

Compared with ATTCACTC, CATTCCCG is lower in “PBM E-score” value: 0.106 for the first, 0.0388 for the second.

Compared with ATACTTGG, GGGGAGTA is lower in “PBM E-score” value: -0.0756 for the first, -0.145 for the second.

Going from AATGGGTG to ATCTATGG, the “PBM E-score” value falls from 0.00666 to -0.2.
